Hit rate of the full screen: of about 310,000 compounds, about 18,000 (5.8%) were called active. The inconclusive results got no clear call from the source; some entries with a clear call stand among them for comparison. Calls follow the shape of the dose curve; as a rule, active = well fitted inhibition curve with a large enough effect; inconclusive = small, poorly fitted or top-dose-only effect, or another doubt; inactive = no such curve, though single readings can be large or run the other way. Potencies of inconclusive entries are left out as doubtful fits.
Test: Primary qHTS for delayed death inhibitors of the malarial parasite plastid, 48 hour incubation
Conditions: P. falciparum luciferase growth in erythrocytes; series mostly up to 28.7 µM
Summary of the method: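 Compounds are pin-transferred into medium, infected erythrocytes (2% hematocrit, 0.1% parasitemia final) are added, and plates sit one parasite generation at 37 C in 5% CO2. Detection reagent is then added and luminescence measured.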
With `CCn1c(-c2ccco2)nc2ccccc21` the Potency was “inactive”. With `CC1(C)NC(=O)N(CC(O)COc2ccccc2C(=O)Nc2ccccc2)C1=O` (stereo not drawn) the Potency was “inactive”. In the case of `COc1ccccc1N1CCN(C(=O)NCc2ccc(Cl)cc2)CC1`, the Potency is reported as “inactive”. In the case of `Cc1ccccc1-c1nc(CN(Cc2c(C)nn(C)c2C)C2CC2)c(C)o1`, the Potency is reported as active: 11.7 µM. In the case of `Cc1ccc(NC(=O)N2CCCC2C(=O)Nc2ccc3c(c2)OCCO3)cc1` (stereo not drawn), the Potency is reported as “inactive”. With `CC(=O)N/C(=C/c1ccc(OS(=O)(=O)c2ccc(C)cc2)cc1)C(=O)Nc1ccc(C(=O)O)cc1` the Potency was “inactive”. For `Cc1onc(-c2ccccc2)c1C(=O)OCC(=O)Nc1ccccc1`, the Potency was inconclusive [inhibitor, single point]. For `CCN(CC)S(=O)(=O)c1cc(NC(=O)C2=COCCO2)ccc1Cl`, the Potency was inconclusive [inhibitor, single point]. For `NS(=O)(=O)c1ccc(NC(=S)N2CCc3ccccc32)cc1`, the Potency was “inactive”. In the case of `CCOc1ccc(N(CC(=O)N/N=C/c2cc(Br)c(C)o2)S(C)(=O)=O)cc1`, the Potency is reported as inconclusive [inhibitor, partial curve, poor fit]. With `COc1ccc2nc(C)cc(SCC(=O)N/N=C/c3cccc4ccccc34)c2c1` the Potency was inconclusive [inhibitor, single point]. In the case of `CC(=O)C1=C(O)C(=O)N(c2cccnc2)C1c1ccc(Cl)cc1` (stereo not drawn), the Potency is reported as “inactive”. With `Oc1[nH]c2ccccc2c1N=Nc1nc(Nc2ccccc2)nc(N2CCOCC2)n1` the Potency was active: 6.57 µM. In the case of `Cc1cc(N2CCC(C(=O)NCC3CC3)CC2)nc(-c2ccccc2)n1`, the Potency is reported as inconclusive [inhibitor, full curve]. For `NC(=O)c1sc2nc3c(cc2c1N)CCC3`, the Potency was “inactive”. For `CCn1c(=O)c([N+](=O)[O-])c(N2CCN(Cc3ccc4c(c3)OCO4)CC2)c2ccccc21`, the Potency was inconclusive [inhibitor, partial curve, poor fit]. For `Cc1ccc(-c2csc3ncnc(SCC(=O)NCc4ccc5c(c4)OCO5)c23)cc1`, the Potency was inconclusive [inhibitor, single point]. With `O=C(CCCn1c(=O)oc2ccccc21)NC1CCCCCC1` the Potency was “inactive”. With `CCCCn1c(N)c(N(CC)C(=O)c2cc(C)cc(C)c2)c(=O)[nH]c1=O` the Potency was “inactive”. With `Cc1cccc(NC(=S)NC(C)C(c2ccccc2)N2CCN(C)CC2)c1C` (stereo not drawn) the Potency was inconclusive [inhibitor, partial curve]. With `CC(C)c1ccc(C(=O)NCCCN2CCN(CCCNC(=O)c3ccc(C(C)C)cc3)CC2)cc1` the Potency was inconclusive [inhibitor, partial curve, poor fit]. With `CCNc1nc(NCC)n2c(SCC(=O)Nc3ccccc3F)nnc2n1` the Potency was inconclusive [inhibitor, single point]. With `CCn1c(CNS(=O)(=O)c2ccc(Br)cc2)nnc1SC` the Potency was “inactive”. In the case of `CN1CCN(S(=O)(=O)c2ccc(NC(=O)COc3ccccc3)cc2)CC1`, the Potency is reported as inconclusive [inhibitor, single point]. For `COc1cccc(NC(=O)CN2CCN(c3nc(-c4cccc(OC)c4)cs3)CC2)c1`, the Potency was inconclusive [inhibitor, partial curve, poor fit]. In the case of `CCOc1ccc(C(=O)N2CCN=C2SC)cc1OCC`, the Potency is reported as inconclusive [inhibitor, partial curve, poor fit]. In the case of `O=C1C=C(c2cc(F)ccc2F)C[C@@H](c2ccc(Cl)cc2)C1`, the Potency is reported as active: 3.7 µM. With `COc1cc(NC2c3ccccc3C(=O)N2Cc2ccccc2Cl)cc(OC)c1OC` (stereo not drawn) the Potency was inconclusive [inhibitor, partial curve, poor fit]. For `CC(C)(C)c1cc(C(=O)N/N=C/c2ccc(F)cc2)n(-c2ccccc2)n1`, the Potency was inconclusive [inhibitor, full curve]. In the case of `CCCCn1c(N)c(N(CC(C)C)C(=O)c2cccc(OCc3ccccc3)c2)c(=O)[nH]c1=O`, the Potency is reported as inconclusive [inhibitor, single point]. For `Cc1ccccc1Cn1c(=N)n(CC(O)c2ccco2)c2ccccc21` (stereo not drawn), the Potency was active: 9.28 µM. With `COc1ccc(-c2sc3ccc(OC)cc3c2-c2ccc(OC)c(F)c2)cc1` the Potency was inconclusive [inhibitor, single point]. For `CC(=O)NS(=O)(=O)c1ccc(NC(=O)CC23CC4CC(CC(Br)(C4)C2)C3)cc1`, the Potency was “inactive”. In the case of `CCO[C@H]1OC(C(=O)NCc2ccccc2)=C[C@@H](c2ccc(Br)cc2)[C@@H]1CCCO`, the Potency is reported as inconclusive [inhibitor, partial curve, poor fit]. With `O=C(Nc1ccc(F)cc1)Nc1nnc(-c2ccncc2)s1` the Potency was inconclusive [inhibitor, partial curve, poor fit]. In the case of `O=C(NCCN1CCC(Cc2ccccc2)CC1)C1CCN(S(=O)(=O)N2CCC3(CC2)OCCO3)CC1`, the Potency is reported as inconclusive [inhibitor, partial curve, poor fit]. With `CC(C)CC(C(=O)NCC1CCCO1)N(C(=O)Cn1nnc(-c2ccc(F)cc2)n1)c1ccccc1F` (stereo not drawn) the Potency was inconclusive [inhibitor, partial curve]. For `Cc1nnsc1C(=O)N1CCCC(N2CCN(c3cccc(C(F)(F)F)c3)CC2)C1` (stereo not drawn), the Potency was active: 13.1 µM. For `Cc1ccnc(N2C(=O)c3ccccc3C2Nc2cccc(C)c2C)c1` (stereo not drawn), the Potency was inconclusive [inhibitor, partial curve, poor fit]. In the case of `CCCn1nnnc1NCc1c(F)cccc1Cl`, the Potency is reported as “inactive”. For `Fc1ccc2c(c1)nnn2C1CCN(Cc2nnnn2CCc2ccccc2)CC1`, the Potency was inconclusive [inhibitor, partial curve]. In the case of `CNC(=S)NNC(=O)c1sccc1OCc1cccc(C(F)(F)F)c1`, the Potency is reported as inconclusive [inhibitor, single point]. For `Cc1ccccc1CC1(CO)CCCN(Cc2ccc(C#CC(C)(C)O)cc2)C1` (stereo not drawn), the Potency was inconclusive [inhibitor, single point]. In the case of `COCCN(C(=O)COC(=O)CC(C)c1ccccc1)c1c(N)n(Cc2ccccc2)c(=O)[nH]c1=O` (stereo not drawn), the Potency is reported as inconclusive [inhibitor, single point]. With `O=C(Nc1nc(-c2cccnc2)cs1)c1ccc([N+](=O)[O-])cc1` the Potency was active: 4.65 µM. In the case of `Cc1ccc(-c2csc3ncn(-n4c(C)ccc4C)c(=O)c23)o1`, the Potency is reported as active: 13.1 µM. For `O=C(Nc1cc(C(F)(F)F)ccc1N1CCOCC1)c1ccccc1F`, the Potency was inconclusive [inhibitor, partial curve, poor fit]. In the case of `CC(C)(C)c1ccc(C(=O)NCC(=O)OCC(=O)Nc2nc(-c3ccc(F)cc3)cs2)cc1`, the Potency is reported as “inactive”. With `CN(Cc1ccc(F)cc1)C(=O)C(c1ccccc1)c1ccccc1` the Potency was inconclusive [inhibitor, partial curve, poor fit]. For `CC(Oc1ccc(C#N)cc1)C(=O)c1ccc(F)c(F)c1` (stereo not drawn), the Potency was inconclusive [inhibitor, single point]. For `Clc1ccc(-c2nnc(-c3ccccc3)c(-c3ccccc3)n2)cc1`, the Potency was inconclusive [inhibitor, partial curve, poor fit]. For `Cc1ccc(-n2ncc(C(=O)NC3CC3)c2C2CCN(C(=O)OC(C)(C)C)CC2)c(C)c1`, the Potency was active: 10.4 µM. For `CCCN(C(=O)CSc1nc2ccccc2n1CC)C1CCS(=O)(=O)C1` (stereo not drawn), the Potency was inconclusive [inhibitor, partial curve]. In the case of `Cc1cc2ccccc2n1CCNC(=O)c1ccc(Br)o1`, the Potency is reported as inconclusive [inhibitor, single point]. With `Cc1ccccc1OCCC(=O)N(Cc1ccccc1)c1c(N)n(Cc2ccccc2)c(=O)[nH]c1=O` the Potency was inconclusive [inhibitor, single point]. For `O=c1[nH]c(CSc2nnc(-c3ccccc3)n2C2CCCCC2)nc2ccccc12`, the Potency was inconclusive [inhibitor, partial curve, poor fit]. In the case of `Cn1cc(CNCc2cnc3ccccn23)c(-c2ccc(Oc3ccccc3)cc2)n1`, the Potency is reported as inconclusive [inhibitor, partial curve]. For `Cc1cc(C)c(CN2CCN(Cc3ccc(C)o3)C(CCO)C2)c(-n2cccn2)c1` (stereo not drawn), the Potency was “inactive”. For `Fc1cccc(NC(=S)Nc2ccc(Br)cc2)c1`, the Potency was “inactive”. In the case of `Fc1ccc(NC(=S)Nc2cccc3ccccc23)cc1F`, the Potency is reported as inconclusive [inhibitor, partial curve, poor fit]. In the case of `COc1cccc(-c2nnn(CC(=O)Nc3cc(OC)c(NC(=O)c4ccco4)cc3OC)n2)c1`, the Potency is reported as inconclusive [inhibitor, single point]. In the case of `CN(C)S(=O)(=O)c1cc(NC(=O)CN2CCN(c3ccc(O)cc3)CC2)ccc1Cl`, the Potency is reported as inconclusive [inhibitor, partial curve, poor fit]. In the case of `CNS(=O)(=O)c1cc(NC(=O)c2cncn2-c2ccccc2)ccc1C`, the Potency is reported as “inactive”. In the case of `Cc1cc(C)cc(NC(=O)Nc2cccnc2)c1`, the Potency is reported as inconclusive [inhibitor, single point]. With `CCOc1ccc(CCNC(=O)COC(=O)c2cc(OC)c(OC)cc2[N+](=O)[O-])cc1OCC` the Potency was active: 14.7 µM. For `CC(=O)N1CCc2cc(S(=O)(=O)NCCC(=O)NC3CCCc4ccccc43)ccc21` (stereo not drawn), the Potency was active: 11.7 µM. With `O=S(=O)(Nc1nc(SCc2ccc(Cl)cc2)n[nH]1)c1ccc(F)cc1` the Potency was inconclusive [inhibitor, partial curve, poor fit]. With `CCC1CCC2(CC1)NC(=O)N(CC(=O)c1c(C)[nH]c3ccccc13)C2=O` (stereo not drawn) the Potency was inconclusive [inhibitor, single point].

From PubChem BioAssay AID504832 (National Center for Advancing Translational Sciences (NCATS), 2011)
Potency is read from the fitted curve at half-maximal effect; tags tell the direction and shape of the fitted curve.
